# Results taken from the supplement of paper PMC8728848.
# Some of the results follow.
# B1: PitA (Streptococcus oralis), G3F8D8 (protein)
# chain: MNIRFDFKKVQIIARRLVTLLAILFLCAPISLLNADSTTEPQTTLHKTITPISGQDDKYELSLDITSKLGTETQTDPLDVVLVADLSGSMQNQDVQSFDGRTISRIDALKNTLRGTNGRKGLIDTILSNSNNRLSMVGFGGKIDNKKVDQYWDGNKWRLFRPYWPYERMTKYYDGVSPWDDANTILGWSNNARAAKTAVYNMSIAGGNSIGTESGIGTGTNIGAGLTLANQLMGSARSNAKKVVILLSDGFANMVYDANGYTIYNYNNEDPNIETAPQWFWDRLNNNLNSLSYSLAPTLDGFYSIKFRYSNNVDSITSLQYYMRQHNASIPNEIFSANDEDQLRDSFKDITDKILPLGIHHVSIKDVLSKYVQLLPNGSSEFRVVKEKDGSSEILIENQVTFDTKTTSEGLVEVTAKFSPNYSLEDGARYVLKFTVTSSQEALDAIAGDKKLEAGDAEGSDVNKLYSNKGASVTYSYGIGNSQTKTKEYSDNPTFKPSDPLTVPVEVEWQGVTGARTVITADQPSNVELKLVQKNKNGGSDNQDYRKTNVNVSKNVSNETRNFEKVAKGYQYDLIAPDVPAFTKEIKNVGTESKPSFKVIYKQLPSLTIKKVLEAENNLNKEFRIKVKLTSPDSKPLNGTFGEITVVNGEAEIRVEKRKRWEGILSYLPRGTHYKVEEEAASTNGYHVTYENQEGDLNKDETSIVTNHKLPSLSVTKKVTGVFANLLKSFKITINIRDAQNSPLNGTYTATVNNKRTPLQFTNGRASIDLNKDQTIKIYGLPLDSHYTVEEESNSSRGYQVSYENQEGKLDGDKSATVTNNKNSVPETGVDFLSSTLMLGIILPLGGIFFTILLGYLVVHRRK
# Columns and labels:
# Assay in all cases: glycan array binding signal (z-score within array); higher = stronger binding
# Details in all cases: glycan notation: IUPAC condensed, linker removed
# [1] = target: GlcNAc(b1-3)Gal(b1-3)GalNAc
# In short: (§1)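 The binding signal is a Z-score computed within each array. Data were drawn from 3228 arrays in the Consortium for Functional Glycomics database, restricted to those with a known protein sequence. Scores were averaged over arrays of the same protein sequence at different concentrations or buffers, and over linkers, and negative values can be taken as non-binding.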
# GlcNAc(b1-3)Gal(b1-4)Glc = target: GlcNAc(b1-3)Gal(b1-4)Glc
# In short: as §1
# [2] = target: GlcNAc(b1-3)Gal(b1-4)GlcNAc
# In short: as §1
# [3] = target: GlcNAc(b1-3)Gal(b1-4)GlcNAc(b1-3)Gal(b1-4)GlcNAc
# In short: as §1
# GlcNAc(b1-3)GalNAc = target: GlcNAc(b1-3)GalNAc
# In short: as §1
# GlcNAc(b1-3)Man = target: GlcNAc(b1-3)Man
# In short: as §1
# [4] = target: GlcNAc(b1-3)[GlcNAc(b1-4)][GlcNAc(b1-6)]GlcNAc
# In short: as §1
# [5] = target: GlcNAc(b1-3)[GlcNAc(b1-6)]Gal(b1-4)GlcNAc
# In short: as §1
# [6] = target: GlcNAc(b1-3)[GlcNAc(b1-6)]GalNAc
# In short: as §1
# [7] = target: GlcNAc(b1-4)Gal(b1-4)GlcNAc
# In short: as §1
# GlcNAc(b1-4)GlcNAc = target: GlcNAc(b1-4)GlcNAc
# In short: as §1
# [8] = target: GlcNAc(b1-4)GlcNAc(b1-4)GlcNAc
# In short: as §1
# [9] = target: GlcNAc(b1-4)GlcNAc(b1-4)GlcNAc(b1-4)GlcNAc(b1-4)GlcNAc
# In short: as §1
# [10] = target: GlcNAc(b1-4)GlcNAc(b1-4)GlcNAc(b1-4)GlcNAc(b1-4)GlcNAc(b1-4)GlcNAc
# In short: as §1
# [11] = target: GlcNAc(b1-4)[GlcNAc(b1-6)]GalNAc
# In short: as §1
# [12] = target: GlcNAc(b1-6)Gal(b1-4)GlcNAc
# In short: as §1
# GlcNAc(b1-6)GalNAc = target: GlcNAc(b1-6)GalNAc
# In short: as §1
# GlcNAc3Prop(b1-4)GlcNAc = target: GlcNAc3Prop(b1-4)GlcNAc
# In short: as §1
# [13] = target: GlcNAc6S(b1-3)Gal(b1-4)GlcNAc
# In short: as §1
# Kdn(a2-3)Gal(b1-3)GalNAc = target: Kdn(a2-3)Gal(b1-3)GalNAc
# In short: as §1
# Kdn(a2-3)Gal(b1-3)GlcNAc = target: Kdn(a2-3)Gal(b1-3)GlcNAc
# In short: as §1
# Kdn(a2-3)Gal(b1-4)Glc = target: Kdn(a2-3)Gal(b1-4)Glc
# In short: as §1
# Kdn(a2-3)Gal(b1-4)GlcNAc = target: Kdn(a2-3)Gal(b1-4)GlcNAc
# In short: as §1
# [14] = target: Kdn(a2-3)Gal(b1-4)[Fuc(a1-3)]GlcNAc
# In short: as §1
# Kdn(a2-6)Gal(b1-4)GlcNAc = target: Kdn(a2-6)Gal(b1-4)GlcNAc
# In short: as §1
# [15] = target: Man(a1-2)Man(a1-2)Man(a1-3)Man
# In short: as §1
# [16] = target: Man(a1-2)Man(a1-2)Man(a1-6)[Man(a1-3)]Man
# In short: as §1
# Man(a1-2)Man(a1-3)Man = target: Man(a1-2)Man(a1-3)Man
# In short: as §1
# [17] = target: Man(a1-2)Man(a1-3)[Man(a1-2)Man(a1-6)]Man
# In short: as §1
# [18] = target: Man(a1-2)Man(a1-3)[Man(a1-2)Man(a1-6)]Man(a1-6)[Man(a1-2)Man(a1-2)Man(a1-3)]Man
# In short: as §1
# [19] = target: Man(a1-2)Man(a1-3)[Man(a1-2)Man(a1-6)]Man(a1-6)[Man(a1-2)Man(a1-2)Man(a1-3)]Man(b1-4)GlcNAc(b1-4)GlcNAc
# In short: as §1
# [20] = target: Man(a1-2)Man(a1-3)[Man(a1-6)]Man(a1-6)[Man(a1-2)Man(a1-3)]Man(b1-4)GlcNAc(b1-4)GlcNAc
# In short: as §1
# [21] = target: Man(a1-2)Man(a1-6)[Man(a1-3)]Man(a1-6)[Man(a1-2)Man(a1-2)Man(a1-3)]Man
# In short: as §1
# [22] = target: Man(a1-2)Man(a1-6)[Man(a1-3)]Man(a1-6)[Man(a1-2)Man(a1-2)Man(a1-3)]Man(b1-4)GlcNAc(b1-4)GlcNAc
# In short: as §1
# Man(a1-3)[Man(a1-6)]Man = target: Man(a1-3)[Man(a1-6)]Man
# In short: as §1
# [23] = target: Man(a1-3)[Man(a1-6)]Man(a1-6)[Man(a1-2)Man(a1-3)]Man(b1-4)GlcNAc(b1-4)GlcNAc
# In short: as §1
# [24] = target: Man(a1-3)[Man(a1-6)]Man(a1-6)[Man(a1-3)]Man
# In short: as §1
# [25] = target: Man(a1-3)[Man(a1-6)]Man(a1-6)[Man(a1-3)]Man(b1-4)GlcNAc(b1-4)GlcNAc
# In short: as §1
# [26] = target: Man(a1-3)[Man(a1-6)]Man(b1-4)GlcNAc(b1-4)GlcNAc
# In short: as §1
# [27] = target: Man(a1-3)[Man(a1-6)]Man(b1-4)GlcNAc(b1-4)[Fuc(a1-6)]GlcNAc
# In short: as §1
# Man(a1-6)Man = target: Man(a1-6)Man
# In short: as §1
# Man(b1-4)GlcNAc = target: Man(b1-4)GlcNAc
# In short: as §1
# Neu5Ac(a2-3)Gal = target: Neu5Ac(a2-3)Gal
# In short: as §1
# [28] = target: Neu5Ac(a2-3)Gal(b1-3)GalNAc
# In short: as §1
# [29] = target: Neu5Ac(a2-3)Gal(b1-3)GalNAc(b1-3)Gal(a1-4)Gal(b1-4)Glc
# In short: as §1
# [30] = target: Neu5Ac(a2-3)Gal(b1-3)GalNAc(b1-4)[Neu5Ac(a2-3)]Gal(b1-4)Glc
# In short: as §1
# [31] = target: Neu5Ac(a2-3)Gal(b1-3)GalNAc(b1-4)[Neu5Ac(a2-8)Neu5Ac(a2-3)]Gal(b1-4)Glc
# In short: as §1
# [32] = target: Neu5Ac(a2-3)Gal(b1-3)GalNAc6S
# In short: as §1
# [33] = target: Neu5Ac(a2-3)Gal(b1-3)GlcNAc
# In short: as §1
# [34] = target: Neu5Ac(a2-3)Gal(b1-3)GlcNAc(b1-2)Man(a1-3)[GlcNAc(b1-4)][Neu5Ac(a2-3)Gal(b1-3)GlcNAc(b1-2)Man(a1-6)]Man(b1-4)GlcNAc(b1-4)GlcNAc
# In short: as §1
# [35] = target: Neu5Ac(a2-3)Gal(b1-3)GlcNAc(b1-3)Gal(b1-3)GlcNAc
# In short: as §1
# [36] = target: Neu5Ac(a2-3)Gal(b1-3)GlcNAc(b1-3)Gal(b1-4)GlcNAc
# In short: as §1
# [37] = target: Neu5Ac(a2-3)Gal(b1-3)GlcNAc(b1-3)GalNAc
# In short: as §1
# [38] = target: Neu5Ac(a2-3)Gal(b1-3)GlcNAc(b1-6)GalNAc
# In short: as §1
# [39] = target: Neu5Ac(a2-3)Gal(b1-3)GlcNAc6S
# In short: as §1
# [40] = target: Neu5Ac(a2-3)Gal(b1-3)[Fuc(a1-4)]GlcNAc
# In short: as §1
# [41] = target: Neu5Ac(a2-3)Gal(b1-3)[Fuc(a1-4)]GlcNAc(b1-3)Gal(b1-3)[Fuc(a1-4)]GlcNAc
# In short: as §1
# [42] = target: Neu5Ac(a2-3)Gal(b1-3)[Fuc(a1-4)]GlcNAc(b1-3)Gal(b1-4)[Fuc(a1-3)]GlcNAc
# In short: as §1
# [43] = target: Neu5Ac(a2-3)Gal(b1-3)[Neu5Ac(a2-3)Gal(b1-4)]GlcNAc
# In short: as §1
# [44] = target: Neu5Ac(a2-3)Gal(b1-3)[Neu5Ac(a2-6)]GalNAc
# In short: as §1
binder,measurement,setting,value
B1,glycan array binding signal (z-score),[1],0.506
same,glycan array binding signal (z-score),GlcNAc(b1-3)Gal(b1-4)Glc,0.062
same,glycan array binding signal (z-score),[2],-0.199
same,glycan array binding signal (z-score),[3],-0.259
same,glycan array binding signal (z-score),GlcNAc(b1-3)GalNAc,-0.343
same,glycan array binding signal (z-score),GlcNAc(b1-3)Man,-0.414
same,glycan array binding signal (z-score),[4],0.014
same,glycan array binding signal (z-score),[5],-0.472
same,glycan array binding signal (z-score),[6],-0.392
same,glycan array binding signal (z-score),[7],-0.216
same,glycan array binding signal (z-score),GlcNAc(b1-4)GlcNAc,-0.116
same,glycan array binding signal (z-score),[8],0.175
same,glycan array binding signal (z-score),[9],-0.206
same,glycan array binding signal (z-score),[10],0.39
same,glycan array binding signal (z-score),[11],-0.605
same,glycan array binding signal (z-score),[12],0.902
same,glycan array binding signal (z-score),GlcNAc(b1-6)GalNAc,0.138
same,glycan array binding signal (z-score),GlcNAc3Prop(b1-4)GlcNAc,-0.175
same,glycan array binding signal (z-score),[13],-0.18
same,glycan array binding signal (z-score),Kdn(a2-3)Gal(b1-3)GalNAc,-0.359
same,glycan array binding signal (z-score),Kdn(a2-3)Gal(b1-3)GlcNAc,0.352
same,glycan array binding signal (z-score),Kdn(a2-3)Gal(b1-4)Glc,-0.512
same,glycan array binding signal (z-score),Kdn(a2-3)Gal(b1-4)GlcNAc,-0.184
same,glycan array binding signal (z-score),[14],1.05
same,glycan array binding signal (z-score),Kdn(a2-6)Gal(b1-4)GlcNAc,-0.377
same,glycan array binding signal (z-score),[15],1.92
same,glycan array binding signal (z-score),[16],-0.633
same,glycan array binding signal (z-score),Man(a1-2)Man(a1-3)Man,0.592
same,glycan array binding signal (z-score),[17],-0.583
same,glycan array binding signal (z-score),[18],-0.327
same,glycan array binding signal (z-score),[19],-0.151
same,glycan array binding signal (z-score),[20],-0.351
same,glycan array binding signal (z-score),[21],-0.267
same,glycan array binding signal (z-score),[22],-0.223
same,glycan array binding signal (z-score),Man(a1-3)[Man(a1-6)]Man,-0.627
same,glycan array binding signal (z-score),[23],-0.626
same,glycan array binding signal (z-score),[24],-0.513
same,glycan array binding signal (z-score),[25],0.006
same,glycan array binding signal (z-score),[26],-0.534
same,glycan array binding signal (z-score),[27],0.224
same,glycan array binding signal (z-score),Man(a1-6)Man,-0.46
same,glycan array binding signal (z-score),Man(b1-4)GlcNAc,-0.021
same,glycan array binding signal (z-score),Neu5Ac(a2-3)Gal,-0.309
same,glycan array binding signal (z-score),[28],-0.302
same,glycan array binding signal (z-score),[29],-0.418
same,glycan array binding signal (z-score),[30],-0.417
same,glycan array binding signal (z-score),[31],-0.214
same,glycan array binding signal (z-score),[32],-0.409
same,glycan array binding signal (z-score),[33],-0.534
same,glycan array binding signal (z-score),[34],0.166
same,glycan array binding signal (z-score),[35],-0.709
same,glycan array binding signal (z-score),[36],-0.381
same,glycan array binding signal (z-score),[37],-0.148
same,glycan array binding signal (z-score),[38],-0.42
same,glycan array binding signal (z-score),[39],-0.57
same,glycan array binding signal (z-score),[40],-0.535
same,glycan array binding signal (z-score),[41],0.559
same,glycan array binding signal (z-score),[42],0.383
same,glycan array binding signal (z-score),[43],-0.251
same,glycan array binding signal (z-score),[44],0.755
